Data published in PubChem BioAssay AID686978 (National Center for Advancing Translational Sciences (NCATS), 2013).
In all, about 420,000 compounds went through this assay and about 64,000 (15%) were called active. The inconclusive results got no clear call from the source; some entries with a clear call stand among them for comparison. Calls come from the whole dose curve; as a rule, active = well fitted inhibition curve with a large enough effect; inconclusive = small, poorly fitted or top-dose-only effect; inactive = flat fitted curve, though single readings scatter. No potency is given beside an inconclusive call; the fits are too rough.

Assay: qHTS for Inhibitors of human tyrosyl-DNA phosphodiesterase 1 (TDP1): qHTS in cells in absence of CPT; note: nearly all actives have a fitted effect of over 55% in size
Conditions: DT40 Tdp1-/- hTDP1 cells, no CPT, ATP luminescence, 48 h; activity change, negative = growth inhibition: at 46.2 µM (top of the series) unless noted
Outline: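 Compound effects on proliferation are scored in DT40 Tdp1-/-;hTDP1 cells in the absence of CPT. ATP levels (CellTiter-Glo luminescence) are recorded after a ≥48 hr, 37 °C incubation.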
% is set by controls: 0 for no effect and ±100 for the full control effect; potency is the fitted concentration of half-maximal effect; tags give direction and shape of the fitted curve.

| Structure (SMILES) | Potency | activity change, negative = growth inhibition |
| --- | --- | --- |
| COc1ccc(NS(=O)(=O)c2cccc(C(=O)N3CCCCCC3)c2)cc1 | inactive |  |
| COc1ccc(/C=C/C(=O)NC(=S)N2CCCC(C(N)=O)C2)cc1 (centres undefined) | inconclusive [inhibitor, full curve, poor fit] |  |
| O=C(c1ccc(Br)o1)N(c1ccc(Br)cc1)C1C=CS(=O)(=O)C1 (centres undefined) | inconclusive [inhibitor, single point] |  |
| COc1ccc(CN(C)C(=O)c2cc(-c3ccccc3)nc3ccc(C)cc23)c(OC)c1 | active: 5.8 µM |  |
| CCOC(=O)c1c(C)nc2ccc(Cl)cc2c1-c1ccccc1 | inconclusive [inhibitor, single point] |  |
| COC(=O)c1c(NC(=O)CSc2nnc(-c3ccco3)n2Cc2ccccc2)sc(C)c1C | inconclusive [inhibitor, single point] |  |
| Cc1ccc(NS(=O)(=O)c2ccc3nc(-c4ccccc4)[nH]c3c2)c(Br)c1 | active: 23.1 µM |  |
| C=C(C)Cn1c(CCCNC(=O)CCC)nc2ccccc21 | active: 14.6 µM |  |
| Clc1ccc(CN(Cc2ccccc2)C(c2cccs2)c2nnnn2C2CCCC2)cc1 (centres undefined) | active: 14.6 µM |  |
| CCOc1ccc(C(=O)NCc2ccco2)cc1 | inactive |  |
| COc1ccc(C)cc1NC(=O)C(OC(=O)CNC(=O)c1cc(C)cc(C)c1)c1ccccc1 (centres undefined) | inactive |  |
| O=C(N/N=C/c1cccc(O)c1)c1cc(C2CC2)nc2ccccc12 | inconclusive [inhibitor, single point] |  |
| COC(=O)c1cc(N=Nc2c(C)[nH]c3ccccc23)cc(C(=O)OC)c1 | inconclusive [inhibitor, partial curve] |  |
| CCCC(=O)N1CCC1(C)C(=O)Nc1cccc(F)c1 (centres undefined) | inactive |  |
| CCOC(=O)c1c(C)oc2c1c1c(c3ccccc32)OCN(Cc2ccccn2)C1 | inconclusive [inhibitor, partial curve] |  |
| C[C@@H]1O[C@@H](O[C@H]2[C@H](O[C@H]3C[C@]4(C)C(C[C@@H](O)C5C([C@]6(C)CC[C@@H](C(C)(C)O)O6)CC[C@]54C)[C@@]4(C)CC[C@H](O)C(C)(C)C34)O[C@H](CO)[C@@H](O)[C@@H]2O)[C@H](O)[C@H](O)[C@H]1O (some centres undefined) | inactive |  |
| COC(=O)c1c(C)[nH]c(C(=O)OCC(=O)c2ccc(C)s2)c1C | inconclusive [inhibitor, single point] |  |
| O=C(C1COc2ccccc2O1)N1CCN(Cc2ccc(Br)cc2F)CC1 (centres undefined) | inconclusive [inhibitor, single point] |  |
| CC1(C(=O)Nc2ccc(F)c(Cl)c2)Cc2c(-c3ccccc3)ccnc2O1 (centres undefined) | inconclusive [inhibitor, single point] |  |
| Cn1nccc1C(=O)NC1CCCc2c1cnn2-c1ccccc1F (centres undefined) | active: 2.06 µM |  |
| Cc1ccc(Nc2nnc(SC(C)C(=O)NCC3CCCO3)s2)cc1 (centres undefined) | inactive |  |
| CCc1ccccc1NC(=S)N(CCN1CCOCC1)Cc1ccccc1F | inconclusive [inhibitor, single point] |  |
| O=c1c2sc3nc(N4CCOCC4)c4c(c3c2ncn1-c1ccccc1)CCCC4 | inconclusive [inhibitor, single point] |  |

| Structure (SMILES) | Potency | activity change, negative = growth inhibition |
| --- | --- | --- |
| CCOC(=O)CNC(=S)n1cnc(N)n1 | inconclusive [inhibitor, partial curve] |  |
| Cc1cc(N/N=C2\CC(C)CC(C)(C)C2)nc2ccccc12 (centres undefined) | inconclusive [inhibitor, single point] |  |
| COc1cccc(-c2nnc(NC(=O)c3ccc4ncsc4c3)o2)c1 | active: 14.6 µM |  |
| CC(C)(CO)N=C1NS(=O)(=O)c2cc([N+](=O)[O-])ccc21 | inconclusive [inhibitor, single point] |  |
| COC(=O)c1sccc1NC(=O)CC1C(=O)NCCN1C(=O)c1c(F)cccc1Cl (centres undefined) | inconclusive [inhibitor, partial curve] |  |
| CCCCN(CC)CCCNC(=O)c1cn(CC)c2ccc(S(=O)(=O)N3CCc4ccccc4C3)cc2c1=O | active: 18.4 µM |  |
| O=C(/C=C/c1ccc(Cl)cc1)N1CCC(c2nc3ccccc3o2)CC1 | inconclusive [inhibitor, single point] |  |
| O=C(Nc1cccc(S(=O)(=O)N2CCCCC2)c1)C1CC(=O)N(Cc2ccccc2)C1 (centres undefined) | inactive |  |
| Cc1cccc(OCCC(=O)Nc2ccc(F)c(Cl)c2)c1 | inactive |  |
| CCOc1ccc(N2C(=O)/C(=C/c3ccccc3OCC(=O)OC)N(CC(=O)OC)C2=S)cc1 | inconclusive [inhibitor, single point] |  |
| Cc1ccc(C)c(Cn2nc(-c3ccccc3)ccc2=O)c1 | inconclusive [inhibitor, single point] |  |
| Cc1c(N2C(=O)/C(=C\C3CC=CCC3)SC2=S)c(=O)n(-c2ccccc2)n1C (centres undefined) | inconclusive [inhibitor, single point] |  |
| CCc1ccccc1NC(=O)CCC(=O)N1CC(C)Oc2ccc(C)cc21 (centres undefined) | inconclusive [inhibitor, single point] |  |
| Cc1ccc(SCCC(=O)N/N=C/c2ccncc2)cc1 | inconclusive [inhibitor, single point] |  |
| Cc1cc(C(=O)NC2CCCC(C)C2C)c2ccccc2n1 (centres undefined) | inconclusive [inhibitor, single point] |  |
| COc1ccc(/C=N/N=C2/NC(=O)C(c3ccccc3)(c3ccccc3)S2)cc1 | inconclusive [inhibitor, partial curve] |  |
| COc1ccc2cc(CCNC(=O)CCc3ccccc3)c(=O)[nH]c2c1 | inconclusive [inhibitor, single point] |  |
| COc1ccccc1OCC(=O)Nc1nc(-c2ccc(S(=O)(=O)N3CCOCC3)cc2)cs1 | active: 13 µM |  |
| CCc1cc2c(cc3c(=O)n(CC(=O)N4CCN(c5cccc(C)c5C)CC4)nc(CC)n32)s1 | inactive |  |
| CCOc1ccc(-n2c(SCC(=O)Nc3ccc(CC)cc3)nc3n[nH]c(C)c3c2=N)cc1 | active: 20.6 µM |  |
| O=C(NNC(=S)NCc1ccccc1)c1ccc(OC(F)F)cc1 |  | inconclusive: -37.1% [inhibitor] |
| Cc1ccc(Nc2nc(=O)c3cc([N+](=O)[O-])ccc3s2)cc1 | inactive |  |
| CN(CC(O)COc1c(F)cc(Br)cc1F)C1CCCCC1 (centres undefined) | inconclusive [inhibitor, single point] |  |

| Structure (SMILES) | Potency | activity change, negative = growth inhibition |
| --- | --- | --- |
| Cc1ccccc1Cn1cc(NS(=O)(=O)c2cn(C)nc2C)cn1 | inactive |  |
| Cc1ccc(C)c(N2CCN(S(=O)(=O)c3ccc(C(=O)N(C)C)s3)CC2)c1 | active: 16.4 µM |  |
| CN(c1ccccc1)S(=O)(=O)c1cc(C(=O)OCC(=O)N2CCN(C(=O)c3ccco3)CC2)ccc1Cl | active: 23.1 µM |  |
| O=C(NCc1ccccn1)c1cc(Cl)ccc1OCc1ccccc1 | inconclusive [inhibitor, single point] |  |
| COc1cccc(C(=O)N2CCC[C@H]2C(=O)N2CCC[C@H]2C(=O)N(C)Cc2ccccc2)c1 | inactive |  |
| O=C(Cn1cc(C(=O)c2ccccc2)c(=O)c2cc3c(cc21)OCCO3)Nc1ccc(F)c(F)c1 | inconclusive [inhibitor, single point] |  |
| Cc1ccc(/C=C/C2=NN(C)C(=O)CC2)cc1 |  | inconclusive: -31.6% [inhibitor] |
| CCOc1ccc2nc(SCC(=O)Nc3ccc4c(c3)OCO4)sc2c1 | inconclusive [inhibitor, single point] |  |
| COc1ccc(CCNC(=O)c2cc3c(=O)n(C)c4ccccc4c3s2)cc1OC | inconclusive [inhibitor, full curve, poor fit] |  |
| CN(Cc1ccccc1)C(=O)CN1C(=O)NC2(CCCCCCC2)C1=O | inconclusive [inhibitor, partial curve, poor fit] |  |
| COC(=O)c1ccc(NC(=O)c2ccc(NC(=O)C3CCCO3)cc2)cc1 (centres undefined) | inconclusive [inhibitor, single point] |  |
| CC1(C)CC2(OC2c2ccccc2)C(=O)c2ccccc21 (centres undefined) | inconclusive [inhibitor, single point] |  |
| O=C(Nc1ccc(F)cc1)/C(Cl)=C/c1ccccc1 |  | inconclusive: -29.6% [inhibitor] |
| CS(=O)(=O)c1cccc(C(=O)Nc2ccc(S(=O)(=O)N3CCCCC3)cc2)c1 | active: 18.4 µM |  |
| Cc1nc(-c2ccc(C(=O)Nc3ccccc3F)cc2)cs1 | inconclusive [inhibitor, single point] |  |
| Cc1ccccc1CNC(=O)CCC(=O)N1CCSc2ccccc21 | inconclusive [inhibitor, single point] |  |
| COC(=O)c1cc(S(=O)(=O)N2CCN(c3ccccc3F)CC2)c[nH]1 | inconclusive [inhibitor, single point] |  |
| CCOc1ccccc1CNS(=O)(=O)c1cc2c(cc1C)NC(=O)CO2 | active: 23.1 µM |  |
| Cn1c(=O)n(C)c2cc(S(=O)(=O)Nc3ccccc3O)ccc21 | inconclusive [inhibitor, single point] |  |
| COc1ccc(-c2cn(Cc3ccc(C(N)=O)cc3)c(CCN)n2)cc1 | inactive |  |
| O=C(CN1C(=O)c2ccccc2S1(=O)=O)Nc1ncc(Cl)cc1Cl | inactive |  |
| COc1cc(Cl)c(CNC[C@H]2O[C@@H](n3ccc(=O)[nH]c3=O)[C@H](O)[C@@H]2O)c(Cl)c1O |  | inconclusive: -34.5% [inhibitor] |
| CCCO/N=C1/C(=O)N(c2ccccc2)c2ccccc21 | active: 23.1 µM |  |
